Measured values published in publication PMC4336329 (PLoS ONE, 2015).
About 14,000 (4.5%) of roughly 310,000 compounds showed an effect of 50% or more. The effect is printed as a negative number. Some of the results follow.

The compounds below were run against human ether-à-go-go-related gene (hERG) potassium channel (human, UniProt Q12809) (assay: primary screen, population patch clamp on CHO cells stably expressing hERG).
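Note: peak tail current of the secondary pulse compared with the same well before compound.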

Chain of human ether-à-go-go-related gene (hERG) potassium channel (Q12809 whole entry, looked up): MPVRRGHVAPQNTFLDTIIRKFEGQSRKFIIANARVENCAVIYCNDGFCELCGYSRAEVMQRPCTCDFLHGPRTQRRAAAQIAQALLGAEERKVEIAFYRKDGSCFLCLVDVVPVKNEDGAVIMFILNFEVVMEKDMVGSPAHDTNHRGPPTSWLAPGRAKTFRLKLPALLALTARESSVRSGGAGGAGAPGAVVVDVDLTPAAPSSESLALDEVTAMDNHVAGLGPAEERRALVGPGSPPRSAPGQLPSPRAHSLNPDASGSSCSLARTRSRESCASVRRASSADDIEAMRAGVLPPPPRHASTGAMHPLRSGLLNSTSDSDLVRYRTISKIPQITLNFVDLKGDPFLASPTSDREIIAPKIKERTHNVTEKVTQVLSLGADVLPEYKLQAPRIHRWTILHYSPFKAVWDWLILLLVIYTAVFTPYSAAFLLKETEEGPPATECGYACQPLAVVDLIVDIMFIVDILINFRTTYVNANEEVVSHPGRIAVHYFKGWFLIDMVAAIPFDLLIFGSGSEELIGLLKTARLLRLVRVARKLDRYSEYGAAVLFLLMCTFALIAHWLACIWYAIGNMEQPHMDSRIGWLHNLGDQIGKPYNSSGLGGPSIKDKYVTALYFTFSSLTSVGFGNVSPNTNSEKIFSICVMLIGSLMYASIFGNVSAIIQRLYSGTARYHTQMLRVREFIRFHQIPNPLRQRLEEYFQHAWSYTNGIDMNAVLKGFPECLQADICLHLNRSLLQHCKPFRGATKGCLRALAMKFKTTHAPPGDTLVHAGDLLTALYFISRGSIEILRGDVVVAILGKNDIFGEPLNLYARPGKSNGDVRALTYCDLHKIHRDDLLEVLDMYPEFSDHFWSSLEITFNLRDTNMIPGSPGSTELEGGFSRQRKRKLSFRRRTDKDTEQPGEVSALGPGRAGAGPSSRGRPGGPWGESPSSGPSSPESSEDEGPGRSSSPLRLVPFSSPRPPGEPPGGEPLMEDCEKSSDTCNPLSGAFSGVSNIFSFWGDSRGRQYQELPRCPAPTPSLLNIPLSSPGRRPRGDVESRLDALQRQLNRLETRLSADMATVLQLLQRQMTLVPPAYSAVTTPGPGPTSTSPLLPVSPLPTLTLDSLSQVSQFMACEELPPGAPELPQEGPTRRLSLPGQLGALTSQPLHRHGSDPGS

Row | SMILES | hERG current change (%, negative = inhibition) at 10uM [%]
1 | COc1ccc(OC)c(NS(=O)(=O)c2cccs2)c1 | -15.5
2 | Cc1cc(NC(=O)CSc2nnc(COc3ccccc3)n2Cc2ccco2)no1 | 2.24
3 | CCCOc1ccc(C2=CSC3=NCCN23)cc1.Cl | -28.3
4 | CCN(CC(=O)Nc1c(F)cccc1F)C(=O)c1ccc2c(c1)S(=O)(=O)N=C1CCCCCN12 | 9.69
5 | O=S(=O)(NCc1ccc(Cl)cc1Cl)c1ccc(N2CCOCC2)nc1 | -28.4
6 | Cc1ccc(C(=O)C2=C(O)C(=O)N(Cc3cccnc3)C2c2ccc(N(C)C)cc2)o1 (stereo not drawn) | 16.5
7 | CCC(C)NS(=O)(=O)c1ccc(S(=O)(=O)N2CC=C(c3ccc(F)cc3)CC2)cc1 (stereo not drawn) | -12.4
8 | COc1ccc(C(=O)Nc2cc(OC)c(Cl)cc2Cl)cc1 | 18.1
9 | CC(C)OCCCN1C(=O)c2ccccc2C1C(=O)NC1CCCCC1 (stereo not drawn) | -7.62
10 | CC(=O)c1nn(-c2ccc(C(F)(F)F)cc2)c(=O)[nH]c1=O | 27.7
11 | CN1CCN(C(=O)/C(=C/c2ccc(F)cc2)c2ccsc2)CC1.Cl | -70.1
12 | O=C(NNc1ncnc2c1cnn2-c1ccc(F)cc1)c1cccs1 | 6.55
13 | CCOC(=O)CSc1nc(C)c(CC)c(C)c1C(N)=O | 20.9
14 | COCCC1CCCCN1C(=O)c1ccc2nc(Cc3ccccc3F)oc2c1 (stereo not drawn) | -4.88
15 | CC(C)C(NS(=O)(=O)c1ccc2c3c(cccc13)C(=O)N2)C(=O)O (stereo not drawn) | 12
16 | CC(C)CC(=O)N1CCN(Cc2ccccc2Cl)CC1 | 19.8
17 | COc1ccc(-c2nc(CS(=O)CC(=O)NCc3ccc(C)cc3)c(C)o2)cc1OC (stereo not drawn) | -12.5
18 | O=C(Nc1ccccc1)N(CCc1nc2ccccc2[nH]1)C1CCCC1 | -24
19 | N/C(=N\OC(=O)CCC1CCCC1)c1ccccc1 | 3.63
20 | C=C(C)c1ccc(C(C)(C)NC(=O)N2CCN(C)CC2)cc1 | -10.3
21 | COc1ccc(-c2nc(CN(CC3CCC(=O)N3)C(C)C)c(C)o2)c(C)c1C (stereo not drawn) | 9.2
22 | Cc1ccc(N(Cc2cc3ccc(C)cc3[nH]c2=O)S(C)(=O)=O)c(C)c1 | -8.56
23 | CCC1CCC/C1=N\NC(=O)c1ccccc1C (stereo not drawn) | 11.3

Row | SMILES | hERG current change (%, negative = inhibition) at 10uM [%]
24 | COc1ccc(C(=O)N2CCNC(=O)C2CC(=O)Nc2cc(Cl)ccc2OC)cc1 (stereo not drawn) | -8.14
25 | CCN(CC)c1ccc(NC(=O)CN2CCN(c3ccccc3F)CC2)cc1 | -5.61
26 | CCOC(=O)CCc1c(C)nc(SCCCn2c(=O)[nH]c3ccccc32)c(C#N)c1C | 4.73
27 | CCOC(=O)c1c(C)nc2c(c1-c1cc(OC)c(OC)c(OC)c1)C(=O)c1ccccc1-2 | 3.3
28 | CCOC(=O)C(CC)/C(C)=N/NC(=O)c1ccc([N+](=O)[O-])cc1 (stereo not drawn) | -16.1
29 | CN(C)CCn1c(COc2ccccc2)nc2ccccc21.Cl.O | -27.8
30 | COC(=O)c1ccc(NC(=O)CSCc2ccccc2)cc1 | -13.8
31 | N#Cc1c(/N=C/c2cc(Br)cs2)sc2c1CCC2 | 9.83
32 | Cc1cc(F)ccc1S(=O)(=O)N1CCCOC1CNC(=O)C(=O)NC1CCCCC1 (stereo not drawn) | -18
33 | Cc1cc(SCC(=O)OCC(=O)N(C)C2CCS(=O)(=O)C2)c(C)cc1Br (stereo not drawn) | -73.1
34 | C#CCn1c(O)c(N=NC(=O)C(O)c2ccccc2)c2ccccc21 (stereo not drawn) | -13.7
35 | COc1ccc(N2C(=O)CN(Cc3ccc(OC)c(OC)c3)C2=S)cc1 | 2.97
36 | COc1cccc(/C=N/NC(=O)c2cnccn2)c1OC | 12.5
37 | COc1ccc(S(=O)(=O)NCCCn2ccnc2)cc1Cl | 1.55
38 | CCN(CC)C(=O)COc1ccc(/C(C)=N/NC(=O)c2ccccc2-n2cccc2)cc1 | 2.79
39 | CC(=O)Oc1ccc(C(=O)Cc2ccc3ccccc3n2)c(O)c1C | 14.2
40 | CCCC(=O)NC(NC(=S)Nc1ccc(N=Nc2ccccc2)cc1)C(Cl)(Cl)Cl (stereo not drawn) | 2.24
41 | CCc1c(C)nc(SCc2cccnc2)[nH]c1=O | 6.67
42 | Cc1nc(-c2ccc(C(=O)Nc3cccc(F)c3)cc2)cs1 | 20.6
43 | Cc1cc(C)nc(SCc2cn3ccccc3n2)n1 | 4.69
44 | N#Cc1c(Cl)nc(N/N=C/c2ccccc2)c(Cl)c1Cl | 4.71
45 | CCn1c(-c2cc(-c3cc(OC)ccc3OC)nc3ccccc23)n[nH]c1=S | -10.3
46 | C=CCOn1c(=O)c(-c2ccccc2)[n+]([O-])c2ccccc21 | 2.17

Row | SMILES | hERG current change (%, negative = inhibition) at 10uM [%]
47 | Cn1ccc(=Nc2ccc(NC(=O)c3ccc(N=c4ccn(C)c5ccc([N+](=O)[O-])cc45)cc3)cc2)cc1 | -8.52
48 | CCCCCC(=O)N1CCCC(c2nc(-c3ccc(OC)cc3)no2)C1 (stereo not drawn) | -24.9
49 | COc1ccc(C2C=C(c3ccc(Br)s3)Nc3ncnn32)cc1OC (stereo not drawn) | -33
50 | O=C1Nc2ccccc2Sc2ccccc21 | 10
51 | N#Cc1cnn(-c2ccccc2)c1N | 8.8
52 | Nc1nc2n(n1)C(c1ccc(Cl)cc1)CC(c1ccc(F)cc1)N2 (stereo not drawn) | -28.5
53 | CN(C)c1ccc(NC(=O)CN2CCC(C(=O)c3ccc(F)cc3)CC2)cc1 | -32.1
54 | CC(NC(=O)C(=O)N/N=C/c1ccc(Cl)cc1)c1ccccc1 (stereo not drawn) | -21.2
55 | CC(C)(C)NC(=O)CSc1nnc(-c2ccncc2)n1Cc1ccccc1 | -7.27
56 | O=C(NC(=S)Nc1cccc2c(O)cccc12)c1ccccc1[N+](=O)[O-] | 14.6
57 | CCN1CCC[C@H]1CNC(=O)c1cc(S(N)(=O)=O)ccc1OC | -2.79
58 | Cc1cccc2[nH]c(CCNC(=O)C3CCC(=O)N(CCc4cccc(F)c4)C3)nc12 (stereo not drawn) | 17.1
59 | Cc1ccc(S(=O)(=O)Nc2c(C(=O)O)[nH]c3ccccc23)cc1C | 4.02
60 | COC(=O)c1cc(NC(=O)Cc2ccccc2[N+](=O)[O-])ccc1Cl | -21.5
61 | CNS(=O)(=O)c1cccc(C(=O)OCCCOC(=O)c2cccc(S(=O)(=O)NC)c2)c1 | 7.27
62 | Cc1ccc2[nH]c(C)c(CC(=O)NCc3ccccc3)c2c1 | 9.6
63 | CCOc1ccc2nc(NC(=O)CSc3nc4ccccc4c(=O)n3Cc3ccco3)sc2c1 | -2.58
64 | CCc1ccc(OC(=O)CN2C(=O)c3ccccc3C2=O)cc1 | 20.4
65 | CC(=O)NNC(=O)c1cc2c3ccccc3n(C)c2s1 | 16.6
66 | O=C(NCc1cn2ccccc2n1)c1ccccc1 | 11.3
67 | CCOC(=O)N1CCN(S(=O)(=O)c2c[nH]c(C(=O)OC)c2)CC1 | 12
68 | CC(C)(C)c1ccc(C(=O)NCCC(=O)N2CCN(c3ncccn3)CC2)cc1 | -13.4
69 | Cc1ccc(OCc2cccc(S(=O)(=O)N(C)C)c2)c([N+](=O)[O-])n1 | 7.68

Row | SMILES | hERG current change (%, negative = inhibition) at 10uM [%]
70 | CC(C)C1N(C(=O)N(C)C)CCN1S(=O)(=O)c1ccccc1 (stereo not drawn) | 15.2
71 | CC(C)(C)N1OC2CC1c1nc3ccccc3n1C2 (stereo not drawn) | 21.6
72 | O=S(=O)(NC1=NCCCCC1)c1ccc2sc(NS(=O)(=O)c3ccc4ccccc4c3)nc2c1 | 9.13
73 | Cc1cc(NCCN(C)C)n2nc(-c3cccs3)cc2n1 | -34.8
74 | Cc1nc2ccccc2n1/N=C/c1ccc([N+](=O)[O-])o1 | -58.9
75 | COc1ccccc1OCCCOc1cccc(/C=C2\SC(=O)NC2=O)c1 | 19.5
76 | Cc1cccc(NC(=O)/C(=C/c2cccc([N+](=O)[O-])c2)NC(=O)c2cccs2)c1 | 10.2
77 | Cc1ccc2nc(SCC(=O)NCCCN3CCCC3=O)[nH]c2c1 | 0.804
78 | CC(C)(C)C(=O)C[n+]1cccc(C(N)=O)c1.[Br-] | 21
79 | C=CCOc1c(Br)cc(CNn2nnnc2N)cc1OCC | -4.18
80 | COc1cccc(CNC(=O)CCC2CCCN(C(=O)c3cc(C)on3)C2)c1 (stereo not drawn) | 5.3
81 | COc1ccc(OC)c(-n2c(O)c(/C=C3\C(C)=Nc4ccccc43)c(=O)[nH]c2=O)c1 | 15.1
82 | COC(=O)c1c(-c2ccccc2)csc1NC(=O)c1ccco1 | 1.88
83 | O=C(C1CCCO1)N1CCN(S(=O)(=O)c2ccccc2)CC1 (stereo not drawn) | 13.7
84 | CC(C)N1OC2CC1c1nc3ccccc3n1C2 (stereo not drawn) | 15.2
85 | COc1cccc(/C=C/C(=O)c2ccc(C)c([N+](=O)[O-])c2)c1 | -3.1
86 | CN(C)CCN(C(=O)c1ccc2ccccc2c1)c1nc2c(F)cccc2s1.Cl | -10.2
87 | O=C(CCCSc1ccccc1)Nc1nc(-c2ccccn2)cs1 | 0.382
88 | O=C(c1cc2ccccc2c(=O)o1)N1CCCC1 | 10.7
89 | Cc1ccc(C(=O)CSc2nc(N)cc(=O)[nH]2)cc1 | 2.68
90 | COc1ccc(/C=C/C(=O)Nc2ccccc2)cc1OC | -3.62
